What all share (assay): Viability of human cancer cell lines after 72 h of drug (GDSC screen)
Compound in experiment [1]: CO[C@@H]1[C@H](N(C)C(=O)c2ccccc2)C[C@H]2O[C@]1(C)n1c3ccccc3c3c4c(c5c6ccccc6n2c5c31)C(=O)NC4 [Midostaurin]
The following applies: top dose 0.512 µM; top dose inferred. The procedure:
(§1)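 Human cancer cell lines in 384-well plates, medium with 10% serum, drug for 72 h over a 256-fold dose range (nine 2-fold or five 4-fold steps up to the top dose). Adherent lines were fixed and stained with the nucleic acid dye Syto60, suspension lines read with resazurin; signal relative to control wells, capped at 0 and 100%. One two-parameter sigmoid per drug and line, fitted in a mixed model over all curves with the slope shared within a line.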

Compound in experiment [2]: Cc1ccc(C(=O)Nc2cccc(C(F)(F)F)c2)cc1Nc1nc(-c2cccnc2)nc2c1cnn2C [NVP-BHG712]
The following applies: top dose 10.24 µM; top dose inferred. The procedure:
as §1

Compound in experiment [3]: CO[C@@]12[C@H](COC(N)=O)C3=C(C(=O)C(C)=C(N)C3=O)N1C[C@@H]1N[C@@H]12 [Mitomycin C]
As to conditions: top dose 16 µM. As for the experimental part: as §1

Compound in experiment [4]: O=C(O)CNC(=O)c1c(O)c2ccccc2n(Cc2ccccc2)c1=O [IOX2]
The following applies: top dose 0.1 µM; top dose inferred. As for the experimental part:
as §1

Compound in experiment [5]: COc1cc(Nc2c(C#N)cnc3cc(OCCCN4CCN(C)CC4)c(OC)cc23)c(Cl)cc1Cl [Bosutinib]
The following applies: top dose 2 µM. The procedure:
as §1

Among the data in the supplement of paper PMC4967469 are AUC and IC50 values, retold here.

Lines with a small IC50 respond at low doses; a limit (>, <) means that the fit lies beyond the doses tested. The AUC spans the tested range (256-fold, ending at the top dose) of the same fit; the more sensitive the line, the further below 1. For some of these results: An inferred top dose was derived from the fitted curves, not read from the paper.

Turning to MKN45 (stomach, adherent), the AUC in experiment [1] was found to be 0.742; in experiment [2], 0.958; in experiment [3], 0.251; in experiment [4], 0.974; in experiment [5], 0.915. Besides, the half-maximal inhibitory concentration (IC50) in experiment [1] was 193 nM; in experiment [2], above 10200 nM; in experiment [3], 157 nM; in experiment [4] it was above 100 nM; in experiment [5], above 2000 nM.
Take TOV-112D (ovary, adherent): the AUC in experiment [1] came out at 0.711; in experiment [2], 0.899; in experiment [3], 0.134; in experiment [4] it was 0.842; in experiment [5], 0.926. Besides, the concentration for half-maximal inhibition (IC50) was 126 nM in experiment [1]; above 10200 nM in experiment [2]; 69.3 nM in experiment [3]; 70.6 nM in experiment [4]; above 2000 nM in experiment [5].
With JIMT-1 (breast, adherent), the AUC in experiment [1] is 0.936; in experiment [2], 0.924; in experiment [3], 0.496; in experiment [4], 0.976; in experiment [5], 0.854. The IC50 in experiment [1] was above 512 nM; in experiment [2], above 10200 nM; in experiment [3], 977 nM; in experiment [4], above 100 nM; in experiment [5] it was 1770 nM.
DOK (head and neck, adherent): the AUC in experiment [1] turned out to be 0.85; in experiment [2], 0.955; in experiment [3], 0.69; in experiment [4] it was 0.956; in experiment [5], 0.633. For the same cell line, the IC50 in experiment [1] was above 512 nM; in experiment [2], above 10200 nM; in experiment [3] it was 4500 nM; in experiment [4], above 100 nM; in experiment [5] it was 350 nM.
With Hep 3B2_1-7 (liver, adherent), the AUC in experiment [1] was 0.947; in experiment [2], 0.819; in experiment [3], 0.463; in experiment [4], 0.985; in experiment [5], 0.945. Also, the concentration for half-maximal inhibition (IC50) was above 512 nM in experiment [1]; 5840 nM in experiment [2]; 794 nM in experiment [3]; above 100 nM in experiment [4]; above 2000 nM in experiment [5].
Regarding OVTOKO (ovary, adherent), the AUC in experiment [1] worked out at 0.734; in experiment [2], 0.933; in experiment [3], 0.245; in experiment [4], 0.94; in experiment [5], 0.696. Further, the IC50 in experiment [1] is 182 nM; in experiment [2], above 10200 nM; in experiment [3], 147 nM; in experiment [4], above 100 nM; in experiment [5], 519 nM.
Consider JHH-6 (liver, adherent), for which the AUC in experiment [1] is 0.934; in experiment [2], 0.957; in experiment [3], 0.584; in experiment [4], 0.986; in experiment [5], 0.957. The IC50 in experiment [1] was above 512 nM; in experiment [2] it was above 10200 nM; in experiment [3], 1700 nM; in experiment [4] it was above 100 nM; in experiment [5], above 2000 nM.
As to CAL-78 (chondrosarcoma, adherent), the AUC worked out at 0.841 in experiment [1]; 0.961 in experiment [2]; 0.932 in experiment [3]; 0.985 in experiment [4]; 0.986 in experiment [5]. Moreover, the half-maximal inhibitory concentration (IC50) in experiment [1] was 435 nM; in experiment [2] it was above 10200 nM; in experiment [3] it was above 16000 nM; in experiment [4], above 100 nM; in experiment [5], above 2000 nM.
For the cell line FU-OV-1 (ovary, adherent), the AUC in experiment [1] is 0.977; in experiment [2], 0.859; in experiment [3] it was 0.867; in experiment [4], 0.974; in experiment [5], 0.966. Further, the IC50 in experiment [1] is above 512 nM; in experiment [2], above 10200 nM; in experiment [3], above 16000 nM; in experiment [4], above 100 nM; in experiment [5], above 2000 nM.
In the case of “NCI-H650 (lung adenocarcinoma, adherent)”, the AUC in experiment [1] amounted to 0.903; in experiment [2], 0.916; in experiment [3] it was 0.66; in experiment [4] it was 0.896; in experiment [5], 0.986. For the same cell line, the IC50 in experiment [1] is above 512 nM; in experiment [2], above 10200 nM; in experiment [3] it was 2930 nM; in experiment [4] it was above 100 nM; in experiment [5] it was above 2000 nM.
As to “NCI-H1568 (lung adenocarcinoma, adherent)”, the AUC in experiment [1] amounted to 0.883; in experiment [2], 0.948; in experiment [3] it was 0.459; in experiment [4] it was 0.971; in experiment [5], 0.907. Also, the IC50 in experiment [1] was above 512 nM; in experiment [2] it was above 10200 nM; in experiment [3] it was 750 nM; in experiment [4] it was above 100 nM; in experiment [5], above 2000 nM.
Turning to IHH-4 (thyroid, semi-adherent), the AUC in experiment [1] was 0.767; in experiment [2], 0.935; in experiment [3], 0.054; in experiment [4], 0.976; in experiment [5], 0.831. For the same cell line, the concentration for half-maximal inhibition (IC50) is 155 nM in experiment [1]; above 10200 nM in experiment [2]; below 62.5 nM in experiment [3]; above 100 nM in experiment [4]; 935 nM in experiment [5].
For the cell line “IA-LM (large cell lung carcinoma, adherent)”, the AUC in experiment [1] was 0.948; in experiment [2], 0.983; in experiment [3] it was 0.207; in experiment [4] it was 0.974; in experiment [5], 0.982. The IC50 is above 512 nM in experiment [1]; above 10200 nM in experiment [2]; 121 nM in experiment [3]; above 100 nM in experiment [4]; above 2000 nM in experiment [5].

Usually IC50 stands for the concentration needed to halve the response being measured.
